Measured values published in the supplement of paper PMC4967469.

What was measured:
Test in all cases: Viability of human cancer cell lines after 72 h of drug (GDSC screen)
[1] = compound: C/C(O)=C(\C#N)C(=O)Nc1cc(Br)ccc1Br [LFM-A13]; conditions: top dose 16 µM; top dose inferred
Procedure: (§1)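 Human cancer cell lines in 384-well plates, medium with 10% serum, drug for 72 h over a 256-fold dose range (nine 2-fold or five 4-fold steps up to the top dose). Adherent lines were fixed and stained with the nucleic acid dye Syto60, suspension lines read with resazurin; signal relative to control wells, capped at 0 and 100%. One two-parameter sigmoid per drug and line, fitted in a mixed model over all curves with the slope shared within a line.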

[2] = compound: CC(C)c1ccccc1Cc1cc(C(=O)Nc2ccc(S(=O)(=O)c3ccccc3C(C)(C)C)cc2)c(O)c(O)c1O [TW-37]; conditions: top dose 5 µM
Procedure: as §1

[3] = compound: CC(O)(CS(=O)(=O)c1ccc(F)cc1)C(=O)Nc1ccc(C#N)c(C(F)(F)F)c1 [Bicalutamide]; conditions: top dose inferred
Procedure: as §1

[4] = compound: CCNC(=O)c1noc(-c2cc(C(C)C)c(O)cc2O)c1-c1ccc(CN2CCOCC2)cc1 [AUY922]; conditions: top dose 0.256 µM; top dose inferred
Procedure: as §1

[5] = compound: Cc1ccc(Nc2cc(-c3cccc(N4C(=O)c5ccccc5C4=O)c3)ncn2)cc1NS(C)(=O)=O [KIN001-270]; conditions: top dose 20 µM; top dose inferred
Procedure: as §1

[6] = compound: Cc1cn(-c2cc(NC(=O)c3ccc(C)c(Nc4nccc(-c5cccnc5)n4)c3)cc(C(F)(F)F)c2)cn1 [Nilotinib]; conditions: top dose 2 µM
Procedure: as §1

[7] = compound: Nc1ccn([C@@H]2O[C@H](CO)[C@@H](O)C2(F)F)c(=O)n1 [Gemcitabine]; conditions: top dose 1.024 µM
Procedure: as §1

[8] = compound: O=S(=O)(c1ccccc1)N(CC(F)(F)F)c1ccc(C(O)(C(F)(F)F)C(F)(F)F)cc1 [T0901317]; conditions: top dose 10.24 µM; top dose inferred
Procedure: as §1

[9] = compound: S=C(NCc1ccc2c(c1)OCO2)N1CCN(c2ncnc3c2oc2ccccc23)CC1 [MP470]; conditions: top dose 20 µM; top dose inferred
Procedure: as §1

[10] = top dose 1.024 µM, screen: GDSC drug entry 150
[11] = top dose 10 µM, screen: GDSC drug entry 1502

Cell Line	AUC [1]	IC50 [1] [nM]	AUC [2]	IC50 [2] [nM]	AUC [3, 10]	IC50 [3, 10] [nM]	AUC [3, 11]	IC50 [3, 11] [nM]	AUC [4]	IC50 [4] [nM]	AUC [5]	IC50 [5] [nM]	AUC [6]	IC50 [6] [nM]	AUC [7]	IC50 [7] [nM]	AUC [8]	IC50 [8] [nM]	AUC [9]	IC50 [9] [nM]
LN-18 (glioma, adherent)	0.987	> 16000	0.422	200	0.993	> 1020	0.984	> 10000	0.579	25.2	0.994	> 20000	0.994	> 2000	0.062	< 4	0.992	> 10200	0.987	> 20000
HT-115 (large intestine, adherent)	0.99	> 16000	0.718	1210	0.991	> 1020	0.96	> 10000	0.991	> 256	0.98	> 20000	0.991	> 2000	0.983	> 1020	0.966	> 10200	0.396	665
A2780 (ovary, semi-adherent)	0.954	> 16000	0.467	253	0.984	> 1020	0.975	> 10000	0.454	12	0.916	> 20000	0.981	> 2000	0.182	6.79	0.965	> 10200	0.692	4420
23132-87 (stomach, adherent)	0.96	> 16000	0.593	568	0.982	> 1020	0.985	> 10000	0.769	99.7	0.97	> 20000	0.986	> 2000	0.473	53.8	0.977	> 10200	0.922	> 20000
NCI-H2347 (lung adenocarcinoma, adherent)	0.979	> 16000	0.707	1380	0.974	> 1020	0.98	> 10000	0.693	63.2	0.981	> 20000	0.983	> 2000	0.767	462	0.983	> 10200	0.969	> 20000
SNG-M (endometrium, adherent)	0.967	> 16000	0.03	< 19.5	0.979	> 1020	0.983	> 10000	0.351	6.26	0.924	> 20000	0.96	> 2000	0.043	< 4	0.954	> 10200	0.833	12600
PANC-08-13 (pancreas, adherent)	0.954	> 16000	0.81	3580	0.983	> 1020	0.957	> 10000	0.722	82.7	0.983	> 20000	0.979	> 2000	0.792	612	0.971	> 10200	0.957	> 20000
YKG-1 (glioma, adherent)	0.986	> 16000	0.351	120	0.987	> 1020	0.973	> 10000	0.423	9.81	0.955	> 20000	0.97	> 2000	0.15	5.14	0.984	> 10200	0.884	> 20000
TGBC11TKB (stomach, adherent)	0.99	> 16000	0.823	2500	0.99	> 1020	0.973	> 10000	0.899	> 256	0.967	> 20000	0.992	> 2000	0.637	145	0.988	> 10200	0.931	> 20000
OVTOKO (ovary, adherent)	0.864	> 16000	0.493	298	0.98	> 1020	0.949	> 10000	0.5	16	0.966	> 20000	0.933	> 2000	0.178	4.96	0.974	> 10200	0.955	> 20000
KYSE-150 (oesophagus, adherent)	0.95	> 16000	0.591	549	0.989	> 1020	0.988	> 10000	0.476	13.8	0.986	> 20000	0.969	> 2000	0.196	8.39	0.985	> 10200	0.937	> 20000
VMRC-RCZ (kidney, adherent)	0.922	> 16000	0.872	> 5000	0.983	> 1020	0.976	> 10000	0.489	14.9	0.977	> 20000	0.982	> 2000	0.111	< 4	0.954	> 10200	0.925	> 20000
P12-ICHIKAWA (T-cell lymphoblastic leukaemia, suspension)	0.993	> 16000	0.618	609	0.994	> 1020	0.993	> 10000	0.629	33.3	0.979	> 20000	0.993	> 2000	0.278	17.9	0.963	> 10200	0.946	> 20000

A lower IC50 marks a more sensitive line; fits outside the tested doses are given as limits. For AUC the same curve is integrated over the 256-fold range of doses and scaled to a fraction; it is 1 without any effect and falls as sensitivity rises. For some assays here: Where the top dose is marked as inferred, it comes from the curve model; the source does not state it. For some assays here: Drugs with an entry number were screened twice under separate entries, and the two screens often disagree.
